The source of these data is PubChem BioAssay AID434955 (Southern Research Specialized Biocontainment Screening …, 2010).

Some of the results follow. These are further read-outs of the screen, such as a control signal, another cell line or another target. No call is given for them. The list favours compounds with an active or inconclusive main result. Residues, ends and D or L forms follow the SMILES beside them. *: point of attachment. Cbz = O=C(OCc1ccccc1)*; Boc = CC(C)(C)OC(=O)*

This test is described as follows: beta-lactam sensitization of Mtb H37Rv, H37Rv (AID 434955).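 Note: growth measured after seven days incubation then overnight dye step; 0% = bacteria only wells and 100% = bacteria with antibiotic.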 The note with it: M. tuberculosis H37Rv growth with meropenem, percent inhibition; measured here: primary screen without meropenem; at 25 µM.
The inhibition is the change of the read-out against control, counted positive when it falls. For `O=C(CCC(=O)N1CCCCCC1)Nc1ccc([N+](=O)[O-])cc1`, the inhibition amounted to 7.06%. `CCc1cccc(OCCCCNCCCOC)c1`: the inhibition was -16.6%.

`CCc1nc(SCC(=O)Nc2ccc(F)cc2)c2c(=O)n(C)c(=O)n(C)c2n1`: the inhibition came out at 7.11%. In the case of `S=c1[nH]nc(COc2ccccc2)n1/N=C/c1ccccc1Br`, the inhibition amounted to 5.69%. Turning to `CSc1nsc(SC)c1NC(=O)OCc1ccccc1`, the inhibition turned out to be 7.65%. `CC(C)(C)NCC1(CO)SC(N)=NC1=O` (stereo not drawn): the inhibition is 3.6%.

For `Cc1c(C)c2ccc(OCC(=O)NCCCN3CCCC3=O)cc2oc1=O`, the inhibition is 1.55%. In the case of `CSc1ccc(/C=C/C(=O)NC23CC4CC(CC(C4)C2)C3)cc1`, the inhibition worked out at 53.3%. To `CC(C)(C)c1cc(NC(=O)CCSc2nnc3ccccn23)cc(C(C)(C)C)c1` belongs 16.4%; to `Cc1cc(NS(=O)(=O)c2ccc(NC(=O)C(C)Oc3cccc(C)c3C)cc2)nc(C)n1` (stereo not drawn), -3.75%; to `CCc1noc(C)c1C(=O)OCC(=O)NC(=O)c1ccccc1`, 3.13%. As for `Cc1ccc(C)c(N2CCN(C3CCCC(C)C3)CC2)c1` (stereo not drawn), the inhibition was found to be 3.94%.

Consider `O=C(Nc1ccnn1C1CCN(C(=O)c2ccc(F)cc2)CC1)C1CCOC1` (stereo not drawn), for which the inhibition is 1.78%. For the molecule `Oc1ccc2nnc3c(Br)cnn3c2c1`, the inhibition was -0.91%. Consider `CN(Cc1nccs1)C(=O)c1ccc(OC2CCN(Cc3ccccn3)CC2)cc1`, for which the inhibition was -2.34%. Take `Cc1nc2nc(-c3ccc(F)cc3)cn2nc1C`: the inhibition was -3.44%. For `COc1ccccc1OCC(=O)N1CCCC(Nc2cccc(F)c2)C1` (stereo not drawn), the inhibition was 0.24%.

In the case of `Cc1ccnc(NS(=O)(=O)c2ccc(NC(=O)C34CC5CC(CC(C5)C3)C4)cc2)n1`, the inhibition came to 7.5%. In the case of `CC(C)(C)Nc1nc(Cl)nc(NC(C)(C)C)n1`, the inhibition was 3.43%. For `COc1cccc(C2C(C(N)=O)=C(C)Nc3nc(CCCO)nn32)c1` (stereo not drawn), the inhibition came out at 3.09%. Regarding `Cn1c(CNC(=O)c2ccco2)nnc1SCC(=O)c1ccc(F)cc1`, the inhibition was -2.19%. For the molecule `CCC1C(C#N)=C(N)OC2=C1C(=O)CC(C)(C)C2` (stereo not drawn), the inhibition was found to be 2.52%. To `C=CCn1c(=O)[nH]c2cc(C(=O)N3CCN(c4cc(C)ccc4C)CC3)ccc2c1=O` belongs -6.01%; to `CC(=O)c1ccccc1NC(=O)COC(=O)/C=C/c1ccc(C)o1`, 26.6%; to `O=C(NC1CCCc2c1cnn2-c1ccc(F)cc1F)c1ccccc1N1CCOCC1` (stereo not drawn), -4.15%.

For `C=CCn1c(C)c(C(C)=O)c(SC)nc1=S`, the inhibition was 7.33%. With `O=C(CNC(=O)c1ccccc1)NCC(=O)OCC(=O)c1ccc(F)cc1`, the inhibition is -2.5%. The value for `Cc1ccc(SCC(=O)O/N=C(\N)c2cccnc2)cc1` was -1.64%; that for `C=CCNC1=C(Cl)C(=O)N(c2cccc(Cl)c2Cl)C1=O` was 10.1%; that for `C=CCSc1nc(-c2ccccc2)c(C#N)c(=O)[nH]1` was -2.05%. As for `Cc1ccc(C2(C)NC(=O)N(CC(=O)Nc3ccc4c(c3)OCO4)C2=O)cc1` (stereo not drawn), the inhibition was -4.8%. As to `CC1CCc2nn(CC(=O)NCc3ccc4c(c3)OCO4)cc2C1` (stereo not drawn), the inhibition was -1.77%. Take `O=C(C1=C[C@H](c2ccc(Br)cc2)C[C@H](OCc2ccc(CO)cc2)O1)N1CCN(Cc2ccc3c(c2)OCO3)CC1`: the inhibition amounted to 40.8%. With `CCOc1cc(N2CCOCC2)c(OCC)cc1NC(=O)COc1cccc(CC)c1`, the inhibition was 79.3%. On to `O=C(COc1ccccc1)NNC(=O)c1cc2ccccc2oc1=O`, for which the inhibition was -4.55%. For the molecule `COc1cccc(-c2nnn(CC(=O)Nc3cc(OC)c(NC(=O)c4ccco4)cc3OC)n2)c1`, the inhibition turned out to be 42.2%.

For the molecule `Cc1cc(C(=O)N2CCCC(N3CCN(c4cccc(C(F)(F)F)c4)CC3)C2)c(C)o1` (stereo not drawn), the inhibition was -7.78%.

Regarding `N=c1n(CC(=O)c2ccc([N+](=O)[O-])cc2)c2ccccc2n1Cc1ccccc1`, the inhibition is -0.4%.

`O=C(c1cccc(-c2ccccc2F)c1)N1CC[C@@H](N2CCC(O)CC2)[C@H](O)C1`: the inhibition is -1.12%.

With `COc1ccccc1NC(=O)CSc1nc2nccnc2c(=O)n1Cc1cccs1`, the inhibition is -1.51%. In the case of `COc1ccccc1C1C(C(=O)NCc2ccccc2)=C(C)Nc2ncnn21` (stereo not drawn), the inhibition was -5.08%. Consider `CCCCCCc1ccc(OCC(=O)O)cc1OCC(=O)O`, for which the inhibition is -13.1%.

For the molecule `O=C(CSc1nnc(CNc2ccc(F)cc2)o1)N1c2ccccc2Sc2ccccc21`, the inhibition amounted to 39.9%. As to `O=C(CSc1nnc(-c2cnccn2)n1Cc1ccco1)Nc1ccc(Br)cc1`, the inhibition is 36%. To `O=C(CSc1nnc2c(n1)[nH]c1ccccc12)Nc1ccc2c(c1)OCO2` belongs 0.35%; to `Cc1cc(C(=O)CSc2nnc(N)s2)c(C)n1Cc1cccs1`, 1.63%.

Regarding `CC(C)CNc1oc(-c2ccc(F)cc2)nc1C#N`, the inhibition is -4.1%. Take `O=C(Nc1c2c(nc3ccccc13)CCCC2)c1ccccc1F`: the inhibition was -2.4%. `CC1CCCN(C(=O)C2CCN(c3nc(-c4ccccc4)nc4c3CCC4)CC2)C1` (stereo not drawn): the inhibition was determined as 8.84%. `O=C(O)CN1C(=O)C2(OCCCO2)c2ccccc21`: the inhibition is -1.29%. To `CSc1ccc(C(=O)C2CCCN(C(=O)CCc3cnn(C)c3)C2)cc1` (stereo not drawn) belongs -11.1%; to `CCc1ccc(OCC2c3cc(OC)c(OC)cc3CCN2C(C)=O)cc1` (stereo not drawn), 10.2%. Turning to `CCn1cc(CN2CCC(n3nccc3NC(=O)c3ccccc3C)CC2)cn1`, the inhibition is -14.3%. As for `CC1(C)S[C@@H]2[C@H](NC(=O)Cc3ccccc3)C(=O)N2[C@H]1C(=O)O`, the inhibition is -10.3%. `CCC(=O)Nc1ccc(-c2ccc(N3CCN(C)CC3)nn2)cc1`: the inhibition was -1.82%. On to `Cc1cccc(C)c1OCc1cc(C(=O)N2CCCCCCC2)no1`, for which the inhibition is 9.17%. As for `O=c1cc(C(F)(F)F)nc(SC/C=C/c2ccccc2)[nH]1`, the inhibition is -4.55%. Take `c1csc(-c2csc3nc(CN4CCOCC4)nc(NCc4ccc5c(c4)OCO5)c23)c1`: the inhibition turned out to be 84.7%.

Take `COc1ccc(/C=C2\N=C(SC)N(c3ccccc3OC)C2=O)cc1`: the inhibition amounted to 41.2%. `COc1ccc(S(=O)(=O)N2CCSC2c2ccccc2)cc1` (stereo not drawn): the inhibition is 9%. Turning to `O=C(NCc1ccco1)c1ccc2c(c1)N(Cc1ccccc1)C(=O)CS2=O` (stereo not drawn), the inhibition was -3.55%. `N=c1n(CC(=O)c2ccc(Br)cc2)c2ccccc2n1Cc1ccccc1`: the inhibition was 85.9%. `CCOC(=O)c1c(NC(=O)CCS(=O)(=O)c2ccccc2)sc2c1CCN(C)C2`: the inhibition is -7.11%. Regarding `CCCn1nc(NC(=O)CC(C)C)c2cc3ccccc3nc21`, the inhibition came to 13.6%.

For `COc1ccc(C(=O)Oc2ccc3oc(=O)sc3c2)cc1`, the inhibition worked out at 46.1%.

As to `Cc1cc(OCC(=O)N2CCN(c3ccccn3)CC2)cc(C)c1Br`, the inhibition was determined as 9.21%.

`S=c1nc(-c2ccccc2)n(CCN2CCOCC2)c2c1CCCC2`: the inhibition was -6.8%. Consider `O=C(C1CCN(S(=O)(=O)c2ccccc2)CC1)N1CCN(Cc2ccc3c(c2)OCO3)CC1`, for which the inhibition was -3.36%. As to `CCCC(C)C(=O)Nc1cccc(NC(C)=O)c1` (stereo not drawn), the inhibition is -0.28%.

As to `O=C1c2cc(F)ccc2-n2c1nc1ccccc1c2=O`, the inhibition came out at 99.1%.

Regarding `COc1cc(C(=O)NCCC(=O)NCCc2ccc(Cl)cc2)cc(OC)c1OC`, the inhibition is 6.19%.

Consider `COc1cc(SC)ccc1C(=O)Nc1ccc(C)cc1C`, for which the inhibition was -1.09%. To `Nc1c(C(=O)N2CCCC2)sc2nc3c(cc12)CCCCCC3` belongs 16.2%; to `O=C(CSc1nc2ncccc2[nH]1)NCc1ccco1`, -2.83%. To `COc1nc(-c2ccccc2)ccc1-c1noc(-c2cccs2)n1` belongs -4.23%; to `Cc1ccnn1CC(=O)N/N=C/c1ccc([N+](=O)[O-])s1`, 5.48%. Take `CCCCc1nc2cc(C(=O)N3CCCCC3CC(=O)OCC)ccc2o1` (stereo not drawn): the inhibition was -1.4%. For the molecule `C#CCSc1nnc(-c2sc3ccccc3c2Cl)o1`, the inhibition was found to be 21.4%. To `COc1cc(OC)c(OC)cc1/C=C1\CCC(C2CCCC2)C1=O` (stereo not drawn) belongs 0.78%; to `CC(C)(C)OC(=O)NCCCC[C@H](NC(=O)[C@H](Cc1c[nH]c2ccccc12)NC(=O)OCc1ccccc1)C(=O)O` (Cbz-Trp-Lys(Boc)-OH), 7.99%; to `O=c1[nH]cc(COCc2ccccc2)c(=O)[nH]1`, -0.49%.

For the molecule `O=C(NCCc1ccccc1)/C(=C\c1ccc([N+](=O)[O-])cc1)NC(=O)c1ccc(Br)cc1`, the inhibition was -6.49%. As to `CCOc1ccc(N2C(=O)CC(N)C2=O)cc1` (stereo not drawn), the inhibition was 11.5%. Take `COc1ccc(CC2=C(O)c3ccccc3C(=O)C2=O)cc1`: the inhibition stood at 13.4%. With `CCOC(=O)/C=c1\s/c(=C\c2c(OC)ccc3ccccc23)c(=O)n1CC(=O)NCC1CCCO1` (stereo not drawn), the inhibition worked out at 17%. As for `O=C(CCNS(=O)(=O)c1ccccc1)N1CCN(c2ccccc2)CC1`, the inhibition stood at 2.87%. On to `Cn1c(NCc2ccccc2)nc2c1c(=O)n(Cc1ccc(Br)cc1)c(=O)n2C`, for which the inhibition was found to be 49.5%. As for `O=C1C=C(c2ccccc2)OC2(CCCC2)O1`, the inhibition was -9.26%. In the case of `COC(=O)C1=C(c2cccc(OCc3ccccc3)c2)C[C@@H]2CC[C@H]1N2C(=O)NC1CCN(Cc2ccccc2)CC1`, the inhibition stood at 98%. Regarding `O=C(c1ccc2oc(Cc3ccc(Cl)cc3)nc2c1)N1CCCCC1CCO` (stereo not drawn), the inhibition worked out at 18.6%.

Turning to `Cc1ccc(NC(=O)c2oc3ccccc3c2NC(=O)C2CC2)cc1`, the inhibition was 0.67%. In the case of `O=C1OC(/C=C/c2ccc(Cl)cc2Cl)=NC/1=C\c1cccs1`, the inhibition turned out to be 52.4%.

With `CCOc1ccccc1CNC(=O)c1cc2oc3ccccc3c2n1C`, the inhibition is -0.02%. In the case of `CN(CC1COCCO1)C(=O)c1cc(COc2c(F)cccc2F)on1` (stereo not drawn), the inhibition was -1.95%. As for `Cc1ccc(OCCn2cc(/C=C3\C(=O)NN(c4ccccc4)C3=O)c3ccccc32)cc1`, the inhibition was determined as 39.1%.

On to `CCOC(=O)c1ccc(NC(=O)Cn2cc3c(n2)CCC(C)C3)cc1` (stereo not drawn), for which the inhibition was -7.99%.

In the case of `CCc1ccc(OCCNC(=O)c2ccco2)cc1`, the inhibition stood at 2.69%.

For the molecule `C[C@]12CCC(=O)CC1CCC1C2CC[C@]2(C)C(OC(=O)CCC(=O)O)CCC12` (stereo partly drawn), the inhibition was determined as 1.54%. For `Cc1ccc(-n2nc3c(c2NC(=O)C(C)(C)C)CS(=O)(=O)C3)cc1`, the inhibition was found to be 6.1%. In the case of `COc1cccc(C(=O)O/N=C(\N)c2ccncc2)c1`, the inhibition worked out at 0.75%. For `CCCSc1nnc(NC(=O)c2sc3nc(-c4cccs4)ccc3c2N)s1`, the inhibition came out at 5.61%. As to `O=C(NC(=S)N1CCCC1)c1ccccc1`, the inhibition is 2.73%. `Cc1c(C(=O)N2CCN(c3ccc(F)cc3)CC2)oc2c1C(=O)CCC2`: the inhibition was found to be 8.42%. Consider `N#C/C(=C\c1cn[nH]c1-c1ccc(Cl)cc1)C(=O)NC1CC1`, for which the inhibition was -3.37%. On to `Cc1cc(N2CCN(c3ccccc3)CC2)nc2ccccc12`, for which the inhibition was 43.6%. `Cc1c(NC(=O)c2cc(-c3ccco3)on2)c(=O)n(-c2ccccc2)n1C`: the inhibition is 0.86%. `COc1ccc(CCN(C)C2CCCN(C(=O)Cn3cnnn3)C2)cc1OC` (stereo not drawn): the inhibition is -0.14%. To `CSCc1ccc(C(=O)N2CCC(N3CCC(C(=O)NC(C)C)CC3)CC2)o1` belongs -4.49%.
